Our source for the cell count values is the supplement of paper PMC4604168 (melanoma cell lines).

Among the test systems are WM115; WM1716; WM1745; WM3526; WM3619; WM451Lu.
What all share (assay): cell count relative to DMSO control; melanoma cells; higher = more viable cells
What all share (details): library dose: low library concentration; 72 h

The other results are listed elsewhere or left out. Many values rest on one well or one pass, so single values are uncertain.
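Note: cell number obtained by counting DAPI-stained nuclei in high-throughput microscope images with image analysis software, screen run in 1,536-well plates.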

Regarding `Cc1cc(Nc2cc(N3CCN(C)CC3)nc(Sc3ccc(NC(=O)C4CC4)cc3)n2)n[nH]1` [Tozasertib] + C[C@@H]1CCN(C(=O)CC#N)C[C@@H]1N(C)c1ncnc2[nH]ccc12 [CP690550] (first compound 0.006 µM, partner dose 1 µM), the cell count amounted to 94.4% in the experiment with WM115; 96.2% in the experiment on WM1716; 85% in the experiment on WM1745; 98.3% with WM3526; 89.2% in the experiment with WM3619; 99.8% in the experiment with WM451Lu.
Turning to `CC[C@]1(O)C[C@H]2CN(CCc3c([nH]c4ccccc34)[C@@](C(=O)OC)(c3cc4c(cc3OC)N(C=O)[C@H]3[C@@](O)(C(=O)OC)[C@H](OC(C)=O)[C@]5(CC)C=CCN6CC[C@]43[C@@H]65)C2)C1` [vincristine] + Cc1cc(Nc2cc(N3CCN(C)CC3)nc(/C=C/c3ccccc3)n2)n[nH]1 [ENMD2076] (first compound 0.0001 µM, partner dose 0.04 µM), the cell count in the experiment on WM115 is 49.8%; in the experiment on WM1716, 42.5%; in the experiment on WM1745, 102%; in the experiment with WM3526, 66.9%; with WM3619 it was 50.8%; in the experiment on WM451Lu, 44.6%.
Consider `Cc1cc(Nc2cc(N3CCN(C)CC3)nc(Sc3ccc(NC(=O)C4CC4)cc3)n2)n[nH]1` [Tozasertib] + Cn1c(Nc2ccc(C(F)(F)F)cc2)nc2cc(Oc3ccnc(-c4ncc(C(F)(F)F)[nH]4)c3)ccc21 [CHIR265] (first compound 0.006 µM, partner dose 0.08 µM), for which the cell count in the experiment on WM115 came to 44.2%; in the experiment with WM1716, 61.5%; in the experiment with WM1745 it was 57.8%; with WM3526, 48.5%; in the experiment with WM3619 it was 62.1%; with WM451Lu, 102%.
For the compound `N#CC[C@H](C1CCCC1)n1cc(-c2ncnc3[nH]ccc23)cn1` [ruxolitinib] + NC1(c2ccc(-c3nc4ccn5c(=O)[nH]nc5c4cc3-c3ccccc3)cc2)CCC1 [MK2206] (first compound 1 µM, partner dose 0.4 µM), the cell count stood at 87.1% in the experiment with WM115; 104% in the experiment with WM1716; 84.6% in the experiment on WM1745; 89% with WM3526; 94% with WM3619; 91.7% in the experiment on WM451Lu.
Consider `Cc1cc(Nc2cc(N3CCN(C)CC3)nc(Sc3ccc(NC(=O)C4CC4)cc3)n2)n[nH]1` [Tozasertib] + Nc1ccn([C@@H]2O[C@H](CO)[C@@H](O)C2(F)F)c(=O)n1 [gemcitabine] (first compound 0.006 µM, partner dose 0.0004 µM), for which the cell count with WM115 was 100%; with WM1716, 101%; in the experiment with WM1745, 57.5%; in the experiment with WM3526, 98%; with WM3619, 79%; in the experiment on WM451Lu it was 113%.
On to `CC[C@]1(O)C[C@H]2CN(CCc3c([nH]c4ccccc34)[C@@](C(=O)OC)(c3cc4c(cc3OC)N(C=O)[C@H]3[C@@](O)(C(=O)OC)[C@H](OC(C)=O)[C@]5(CC)C=CCN6CC[C@]43[C@@H]65)C2)C1` [vincristine] + O=C(/C=C/c1cccnc1)NCCCCC1CCN(C(=O)c2ccccc2)CC1 [FK866] (first compound 0.0001 µM, partner dose 0.01 µM), for which the cell count in the experiment with WM115 turned out to be 55.3%; in the experiment with WM1716, 47.5%; in the experiment with WM1745, 88.8%; with WM3526, 78.9%; with WM3619 it was 52.2%; in the experiment with WM451Lu, 50.2%.
Take `Cc1cc(Nc2cc(N3CCN(C)CC3)nc(Sc3ccc(NC(=O)C4CC4)cc3)n2)n[nH]1` [Tozasertib] + O=C(O)c1ccc(-c2c[nH]c3ncc(-c4ccccc4)cc23)cc1C1CCCC1 [GSK650394] (first compound 0.006 µM, partner dose 0.16 µM): the cell count in the experiment on WM115 was 99%; with WM1716, 89.4%; in the experiment with WM1745 it was 99.7%; with WM3526, 86.2%; in the experiment with WM3619, 85.3%; with WM451Lu, 103%.
For the compound `N#CC[C@H](C1CCCC1)n1cc(-c2ncnc3[nH]ccc23)cn1` [ruxolitinib] + Cc1cc(Nc2cc(N3CCN(C)CC3)nc(/C=C/c3ccccc3)n2)n[nH]1 [ENMD2076] (first compound 1 µM, partner dose 0.04 µM), the cell count with WM115 is 108%; in the experiment with WM1716, 103%; in the experiment with WM1745, 89.2%; in the experiment with WM3526, 93.8%; with WM3619, 94.3%; with WM451Lu it was 79.8%.
Take `N#CC[C@H](C1CCCC1)n1cc(-c2ncnc3[nH]ccc23)cn1` [ruxolitinib] + Cc1cc([N+](=O)[O-])ccc1NS(=O)(=O)c1cc(Cl)ccc1Cl [FH535] (first compound 1 µM, partner dose 1 µM): the cell count with WM115 amounted to 100%; in the experiment with WM1716, 91.3%; in the experiment with WM1745, 115%; with WM3526, 97.7%; with WM3619 it was 79%; with WM451Lu, 107%.
For `CC[C@]1(O)C[C@H]2CN(CCc3c([nH]c4ccccc34)[C@@](C(=O)OC)(c3cc4c(cc3OC)N(C=O)[C@H]3[C@@](O)(C(=O)OC)[C@H](OC(C)=O)[C@]5(CC)C=CCN6CC[C@]43[C@@H]65)C2)C1` [vincristine] + NCC(=O)Nc1ccc(-n2nc(C(F)(F)F)cc2-c2ccc3c(ccc4ccccc43)c2)cc1 [OSU03012] (first compound 0.0001 µM, partner dose 1 µM), the cell count in the experiment with WM115 is 58.8%; in the experiment with WM1716 it was 0.534%; in the experiment with WM1745, 92.9%; in the experiment with WM3526, 44.1%; with WM3619, 108%; in the experiment with WM451Lu it was 45.7%.
